Assay results taken from PubChem BioAssay (Tox21).
“And” between values parts separate entries of the source, which are not always exact repeats. Equal entries are not always repeated. Inconclusive results, whose numbers are uncertain, are shown with a selection of clear calls. Potencies beside an inconclusive call are fits to weak or partial responses and may not hold up. The source made the active and inactive calls. Calls follow the shape of the dose curve; as a rule, active = well fitted cell-killing curve with a large enough effect in the repeat runs; inconclusive = weak or mixed curves; inactive = no such curve, though single readings can be large or run the other way. Square brackets hold non-standard residues; d marks the D form. Peptide text beside a SMILES is read from it. Orn = NCCC[C@H](N)C(=O)O

Experiment: qHTS assay to identify small molecule antagonists of the androgen receptor (AR) signaling pathway - cell viability counter screen (AID 743033; also: nearly all actives have a fitted effect of over 45% in size)
Conditions: AR-bla HEK293 viability, CellTiter-Glo luminescence, 16 h; activity change, negative = cytotoxicity: at 58.5 µM (top of the series) unless noted
Excerpt: National Center for Advancing Translational Sciences [NCATS]
NIH Chemical Genomics Center [NCGC]
U.S. Environmental Protection Agency [EPA]
National Institutes of Environmental Health Sciences [NIEHS]
National Toxicology Program [NTP]
U.S. Food and Drug Administration [FDA]
Androgen receptor (AR), a nuclear hormone receptor, plays a critical role in AR-dependent prostate cancer and other androgen related diseases. Endocrine disrupting chemicals (EDCs) and their interactions with steroid hormone receptors like AR may cause disruption of normal endocrine function as well as interfere with metabolic homeostasis, reproduction, developmental and behavioral functions. To identify the compounds that inhibit AR signaling, GeneBLAzer AR-UAS-bla-GripTite cell line (Invitrogen, Carlsbad, CA, USA) containing a beta-lactamase reporter gene under control of an Upstream Activator Sequence (UAS) stably integrated into HEK293 cells was used to screen the Tox21 10K compound library. The cytotoxicity of the Tox21 compound library against the AR-bla cell line was tested in parallel by measuring the cell viability using CellTiter-Glo assay in the same wells.
Tox21 Assay Protocol Summary:
AR-bla cells were dispensed at 2,000 cells/5 uL of assay medium per well into black wall/clear-bottom 1536-well plates using a Multidrop Combi (ThermoFisher Scientific, Waltham, MA) dispenser. After the assay plates were incubated at a 37C and 5% CO2 for 4 hr, 23 nL of compounds dissolved in DMSO, positive controls or DMSO only was transferred to the assay plate by a Pintool station (Kalypsys, San Diego, CA), followed by addition of 1 uL of agonist (R1881) in culture medium using a Bioraptr Flying Reagent Dispenser (FRD) workstation (Beckman Coulter, Indianapolis, IN, USA). The plates were incubated at a 37C and 5% CO2 for 16 h. After 1 uL of LiveBLAzerTM B/G FRET substrate was added using a Bioraptr FRD, the plates were incubated at room temperature for 2 h and fluorescence intensity was measured by an Envision plate reader (PerkinElmer, Shelton, CT). For cell viability readout that measures cytotoxicity, 4 ul/well of CellTiter-Glo reagent was added into the assay plates using a Bioraptr FRD. After 30 min incubation at room temperature, the luminescence intensity in the plates was measured using a ViewLux (PerkinElmer) plate reader.
% is scaled to controls: 0 for no effect and ±100 for the full control effect; potency is read from the fitted curve at half-maximal effect; tags tell the direction and shape of the fitted curve.

SMILES | Potency | activity change, negative = cytotoxicity
N#Cc1ccc(C(c2ccc(C#N)cc2)n2cncn2)cc1 | inconclusive: 6.44 µM [rising, single point] | –
COc1ccc(C2NC(=S)N3C(c4ccc(OC)c(OC)c4)NC(=S)N23)cc1OC (stereo not given) | active: 0.239 µM | –
Cc1ccc(O)c(C(=O)c2ccccc2)c1 | inconclusive: 27.8 µM [cytotoxic, partial curve, poor fit] | –
COC(=O)c1ccc(C(=O)O)cc1 | – | inactive: -1.76%
CCC(O)c1ccccc1 (stereo not given) | inconclusive: 26.8 µM [cytotoxic, single point] | –
CCCCCC1CCCC(=O)O1 (stereo not given) | – | inactive: 0.28%
NCCNCCN | inactive | –
CC(=O)Oc1cc(C)c(OC(C)=O)c2ccccc12 | inconclusive: 26.8 µM [cytotoxic, single point] | –
CN1CCc2c(c3ccccc3n2Cc2ccccc2)C1 | – | inactive: 1.22% [at 27 µM]
CCC(=O)OCC(=O)[C@@]1(OC(=O)CC)[C@@H](C)C[C@H]2[C@@H]3CCC4=CC(=O)C=C[C@]4(C)[C@@]3(F)[C@@H](O)C[C@@]21C | – | inconclusive: -31.4% [cytotoxic]
CC1(C)N=C(N)N=C(N)N1c1ccc(Cl)cc1 | inconclusive: 8.49 µM [cytotoxic, partial curve, poor fit] | –
CCCCCCCCCCCCCCCCOCCOCCOCCOCCOCCOCCOCCOCCOCCOCCOCCOCCOCCOCCOCCOCCOCCOCCOCCOCCO | inconclusive: 15.1 µM [cytotoxic, partial curve, poor fit] | –
C[C@H]1COc2c(C3(N)CC3)c(F)cc3c(=O)c(C(=O)O)cn1c23 | inconclusive: 0.019 µM [cytotoxic, full curve, poor fit] | –
CC[C@H](C)C(=O)O[C@H]1CCC=C2C=C[C@H](C)[C@H](CC[C@@H]3C[C@@H](O)CC(=O)O3)[C@H]21 | – | inconclusive: -32.4% [cytotoxic]
O=C(CCCCCCC(=O)Nc1ccccc1)NO | inconclusive: 535 nM [cytotoxic, full curve, poor fit] and inconclusive: 4.77 µM [cytotoxic, partial curve, poor fit] | –
C[C@H](O)[C@H](O)[C@H]1CNc2nc(N)[nH]c(=O)c2N1 | – | inactive: 2.3%
CC(C)C[C@@H]1NC(=O)[C@H](CCCN)NC(=O)[C@H](C(C)C)NC(=O)[C@@H]2CCCN2C(=O)[C@@H](Cc2ccccc2)NC(=O)[C@H](CC(C)C)NC(=O)[C@H](CCCN)NC(=O)[C@H](C(C)C)NC(=O)[C@@H]2CCCN2C(=O)[C@@H](Cc2ccccc2)NC1=O (cyclo(V[Orn]L[dF]PV[Orn]L[dF]P)) | active: 2.68 µM | –
FC(F)(F)C(F)(F)C(F)(F)C(F)(F)C(F)(F)C(F)(F)C(F)(F)C(F)(F)Br | inconclusive: 0.0019 µM [cytotoxic, full curve, poor fit] | –
CC(=O)N(CC(C)C(=O)O)c1c(I)cc(I)c(N)c1I (stereo not given) | – | inactive: 0.36% [at 27 µM]
CCc1occc(=O)c1O | – | inactive: 3.87%

SMILES | Potency | activity change, negative = cytotoxicity
CCc1ccc2c(c1)N(CC(C)CN(C)C)c1ccccc1S2 (stereo not given) | inconclusive: 23.9 µM [cytotoxic, partial curve] | –
CC(=O)N[C@@H](C=O)[C@@H](O)[C@H](O)[C@H](O)CO | inconclusive: 19 µM [cytotoxic, partial curve, poor fit] | –
NC(=O)C[C@@H](N)C(=O)O | – | inactive: 6.74%
N[C@H](C(=O)O)[C@@H]1CC(Cl)=NO1 | inconclusive: 3.01 µM [cytotoxic, full curve] | –
O=C(O)c1cc(Cl)cc(Cl)c1 | – | inactive: -6.54%
Cc1ccc(C(C)(C)c2ccc(C)cc2)cc1 | – | inactive: 10.3%
COC1[C@@H](O[C@@H]2O[C@H](C)[C@@H](O[C@H]3C[C@@](C)(O)[C@H](OC(=O)CC(C)C)[C@H](C)O3)[C@H](N(C)C)[C@H]2O)[C@@H](CC=O)C[C@@H](C)[C@@H](O)/C=C/C=C/C[C@@H](C)OC(=O)C[C@H]1OC(C)=O (stereo not given in full) | inconclusive: 0.0014 µM [cytotoxic] | –
C=CC(OCC)OCC | – | inactive: -5.52%
CC(C)OCCO | inconclusive: 3.89 µM [cytotoxic, full curve, poor fit] | –
CC(=O)OCC(=O)[C@@]12OC3(CCCC3)O[C@@H]1C[C@H]1[C@@H]3CCC4=CC(=O)C=C[C@]4(C)[C@@]3(F)[C@@H](O)C[C@@]12C | inconclusive: 0.19 µM [cytotoxic, full curve] | –
CC(C)c1ncc([N+](=O)[O-])n1C | inconclusive: 0.0076 µM [cytotoxic, full curve, poor fit] | –
CCOC(=O)[C@H](CCc1ccccc1)N[C@@H](C)C(=O)N1[C@H](C(=O)O)C[C@H]2CCCC[C@@H]21 | inconclusive: 0.0034 µM [cytotoxic, full curve, poor fit] | –
CC1(C)Cc2cccc(N)c2O1 | – | inactive: 3.97%
Cc1cn([C@H]2C[C@H](O)[C@@H](CO)O2)c(=O)[nH]c1=O | inconclusive: 0.0151 µM [cytotoxic, full curve, poor fit] | –
Cc1cccc(C)c1NC(=O)C1CCCCN1C (stereo not given) | inconclusive: 0.0017 µM [cytotoxic, full curve, poor fit] | –
CS(=O)(=O)c1ccc(Cl)cc1 | – | inconclusive: -35% [cytotoxic]
CCC(=O)OC(C)c1ccccc1 (stereo not given) | – | inactive: 4.59%
O=C1CSC2(CCN(CCCN3c4ccccc4Sc4ccc(Cl)cc43)CC2)N1 | inconclusive: 23.9 µM [cytotoxic] | –
CC(=O)[C@]1(O)Cc2c(O)c3c(c(O)c2[C@@H](O[C@H]2C[C@H](N)[C@H](O)[C@H](C)O2)C1)C(=O)c1c(O)cccc1C3=O | inconclusive: 379 nM [cytotoxic, full curve, poor fit] and inconclusive: 239 nM [cytotoxic, full curve, poor fit] | –
CN1CCN2c3ncccc3Cc3ccccc3C2C1 (stereo not given) | inconclusive: 0.003 µM [cytotoxic, full curve, poor fit] | –
